{"source": "the supplement of paper PMC11417369", "note": "± gives the standard deviation of the averaged measurements. Some of the results follow.", "data": [{"test_system": "PfAP2-LT AP2 domain (GST-tagged)", "assay": "gcPBM binding intensity (ln(normalized median fluorescence intensity)); higher = stronger DNA binding", "procedure,_shortened": "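For binding intensity, the highest Masliner-normalised natural-log median intensity across replicate spots of either probe orientation was taken. Protein bound to the array was stained with Alexa488 anti-GST antibody and scanned at 488 nm. The protein, GST-tagged P. falciparum DNA-binding domains from E. coli at about 25 μg on average, had been applied for 1 h to an Agilent 4 × 180k array of primer-extended double-stranded 36-bp intergenic genomic probes and negative controls.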", "values": [{"sequence": "GCAAAATAACAATGTTACACTTATAAAATTGAGGCA [GTGCAC_negctrl_site68]", "gcPBM binding intensity (ln)": "8.81 ± 0.49"}, {"sequence": "ATTGTTACATAAAATGCACACTTTCAAATATGCTAA [CACACA_site5600]", "gcPBM binding intensity (ln)": "8.72 ± 0.37"}, {"sequence": "ATATATACCTATATTACACACTTCTTATTCTAAGAA [CACACA_site7421]", "gcPBM binding intensity (ln)": "8.75 ± 0.45"}, {"sequence": "AGGGTTCATATATTAACACACACATACATATTATAT [CACACA_site8959]", "gcPBM binding intensity (ln)": "9.31 ± 0.39"}, {"sequence": "AGTATTCTAATTTTTAAACACACAAATATAAATAAG [CACACA_site9029]", "gcPBM binding intensity (ln)": "8.56 ± 0.46"}, {"sequence": "TATACACATATATATAGTACATATATAATTTACTAT [XGTACX_site1849]", "gcPBM binding intensity (ln)": "8.86 ± 0.38"}, {"sequence": "TATTTATTAAGACACACACACACACGCACAAAATAA [CACACA_site6254]", "gcPBM binding intensity (ln)": "10.3 ± 0.33"}, {"sequence": "TTCATATATAATTGTACACACAAAAACGACATTGTG [CACACA_site2074]", "gcPBM binding intensity (ln)": "8.96 ± 0.4"}, {"sequence": "TAAATATGAGGGAACACACACATGATATATAAATTC [CACACA_site2400]", "gcPBM binding intensity (ln)": "9.34 ± 0.37"}, {"sequence": "GGAAATAAAATTAAATGTACGAAAACTCATTAAATT [XGTACX_site4274]", "gcPBM binding intensity (ln)": "8.62 ± 0.57"}, {"sequence": "AAACGGGAGAAATAAAAATAAAAATAATAAAACAAA [XGTACX_negctrl_site586]", "gcPBM binding intensity (ln)": "8.81 ± 0.79"}, {"sequence": "TATACTCATGGACACACACACATACACAGACATACA [CACACA_site5024]", "gcPBM binding intensity (ln)": "9.82 ± 0.3"}, {"sequence": "AAATATCAACTCAAATGTACAAATCACAAAAATGTA [XGTACX_site5344]", "gcPBM binding intensity (ln)": "8.81 ± 0.43"}, {"sequence": "ATATATGATGTATTTGTGCACATATATATATTATTA [GTGCAC_site9471]", "gcPBM binding intensity (ln)": "8.88 ± 0.36"}, {"sequence": "TAAATAAAAAGACACACACACATATTTATATTTATA [CACACA_site7135]", "gcPBM binding intensity (ln)": "9.7 ± 0.19"}, {"sequence": "ATATTAAAAAGGAAATGTACGTAATGAAGATCAAGT [XGTACX_site3138]", "gcPBM binding intensity (ln)": "9.22 ± 0.38"}, {"sequence": "TAAATTGGTGCAAAGTGTACATATATATCTTTCCTA [XGTACX_site5458]", "gcPBM binding intensity (ln)": "8.72 ± 0.46"}, {"sequence": "GAGAAAAATATATACACACACATAAATATATACATA [CACACA_site1895]", "gcPBM binding intensity (ln)": "9.48 ± 0.26"}, {"sequence": "ATAAATGTGTTTATTTAACACACAAAAGAAAAAATA [CACACA_site8589]", "gcPBM binding intensity (ln)": "9.05 ± 0.54"}, {"sequence": "TGTATAACCTGTGTTACACACATTAAAATTTATATA [CACACA_site4449]", "gcPBM binding intensity (ln)": "8.75 ± 0.44"}, {"sequence": "GATATTTTTATTTGTTGTACTTAAGATAATAAATGA [XGTACX_site2891]", "gcPBM binding intensity (ln)": "8.39 ± 0.35"}, {"sequence": "AATATATTAAAAAAGCGTACAAGAATTGGAAAATGG [XGTACX_site6576]", "gcPBM binding intensity (ln)": "8.95 ± 0.38"}, {"sequence": "AAAAAAAAAAAAATACGTACACAAAAAATTGCAAAG [XGTACX_site5663]", "gcPBM binding intensity (ln)": "8.9 ± 0.35"}, {"sequence": "CATACATAAATATAAACATGCATATATTTTTTTTAT [TGCATGCA_site616]", "gcPBM binding intensity (ln)": "8.76 ± 0.47"}, {"sequence": "TGATATCTTAAGAAATGTACAAAGATATAACCATTT [XGTACX_site1913]", "gcPBM binding intensity (ln)": "8.7 ± 0.41"}, {"sequence": "ATTTTAATAAAATATGTACACACATACACCCATATA [CACACA_site8326]", "gcPBM binding intensity (ln)": "9.17 ± 0.34"}, {"sequence": "TAAATAAAAAAAAATACACACATCTATATAAAATAT [CACACA_site3774]", "gcPBM binding intensity (ln)": "8.98 ± 0.42"}, {"sequence": "GTATCAAAAGAATACACACACACATACCTATAAATA [CACACA_site7737]", "gcPBM binding intensity (ln)": "9.86 ± 0.28"}, {"sequence": "AAAGGAAAAAAAGTAGCACACAAATATTTATAATAT [CACACA_site8772]", "gcPBM binding intensity (ln)": "9.1 ± 0.58"}, {"sequence": "AAAAAAAAAACACACACATGCACATCATATTATATA [TGCATGCA_site133]", "gcPBM binding intensity (ln)": "9.35 ± 0.3"}, {"sequence": "GATATGTAAATAATATGTACATATTTATATTGTATT [XGTACX_site4052]", "gcPBM binding intensity (ln)": "8.76 ± 0.44"}, {"sequence": "TTTAAAGGTGATAAAACACACGATTTAGAAATGTAT [CACACA_site3161]", "gcPBM binding intensity (ln)": "8.82 ± 0.48"}, {"sequence": "ATATATTATCAACTTACACACAGAAAAATATAATAA [CACACA_site293]", "gcPBM binding intensity (ln)": "9.04 ± 0.41"}, {"sequence": "AAAAAGAATGTGAACACACACATTGAATATAATTTA [CACACA_site1262]", "gcPBM binding intensity (ln)": "9.16 ± 0.52"}, {"sequence": "TTAATACAAATAAAAAGTACAAGTATCGAACTACTA [XGTACX_site6308]", "gcPBM binding intensity (ln)": "8.72 ± 0.44"}, {"sequence": "TTTTTAGTAACATATAGTACATATATATATATATGT [XGTACX_site4780]", "gcPBM binding intensity (ln)": "8.79 ± 0.39"}, {"sequence": "TTATTTTTTCTTCAAATGTGAATTATTCATTTATTT [TGCATGCA_negctrl_site545]", "gcPBM binding intensity (ln)": "8.63 ± 0.49"}, {"sequence": "ATAATATGAAACTCGTACGAGGTTGTCCCAAATATA [CACACA_negctrl_site1350]", "gcPBM binding intensity (ln)": "9.11 ± 0.4"}, {"sequence": "TGGAAAGTTATTAACACACACATATAAATATTTATA [CACACA_site6173]", "gcPBM binding intensity (ln)": "9.03 ± 0.41"}, {"sequence": "AGATCATAATATTATACACACATTATATATATGTAA [CACACA_site8419]", "gcPBM binding intensity (ln)": "8.99 ± 0.35"}, {"sequence": "TATATATAATATTATACACACATATCTGCATAATAT [CACACA_site4202]", "gcPBM binding intensity (ln)": "9.11 ± 0.4"}, {"sequence": "AAAAACCATTCGCACACACACATAATCTATAATATA [CACACA_site6782]", "gcPBM binding intensity (ln)": "9.73 ± 0.3"}, {"sequence": "AAGTACCATATAGGCACACATATATATATATATATA [CACACA_site3282]", "gcPBM binding intensity (ln)": "10 ± 0.28"}, {"sequence": "AAAAACGAAAAAAATACACACCTGAAAAGATATGTA [CACACA_site4644]", "gcPBM binding intensity (ln)": "9.07 ± 0.48"}, {"sequence": "GTATATATGTATATGTGTACATATATTTTATAATAT [XGTACX_site5703]", "gcPBM binding intensity (ln)": "8.79 ± 0.36"}, {"sequence": "TTTTCTTGTAGTATAACAAAATATAGTAATATATAT [GTGCAC_negctrl_site609]", "gcPBM binding intensity (ln)": "8.33 ± 0.42"}, {"sequence": "GTTGTTATATAAAGGAGTACATAATAACACAAATAT [XGTACX_site615]", "gcPBM binding intensity (ln)": "8.96 ± 0.33"}, {"sequence": "CCATTTGGTATTATATGTACATATAATTTTTTTTTT [XGTACX_site157]", "gcPBM binding intensity (ln)": "8.74 ± 0.49"}, {"sequence": "AATCCTTCATATGTAGTGCATATTAACAAAATAAAA [GTGCAC_site9500]", "gcPBM binding intensity (ln)": "8.58 ± 0.44"}, {"sequence": "ATGAAATATTTATTTGTGCACTTAATTTGTTGGAAA", "gcPBM binding intensity (ln)": "8.61 ± 0.48"}, {"sequence": "GATTTATTTCATATCACACATTTTGGCTATTTTGTG [CACACA_site5793]", "gcPBM binding intensity (ln)": "9.07 ± 0.44"}, {"sequence": "AAAAAAAAAAAAAAAACACACATTTATAGTATATAT [CACACA_site1194]", "gcPBM binding intensity (ln)": "8.87 ± 0.3"}, {"sequence": "TCCAATTCTTTATTTTGTACACATTATGTGCATATG [XGTACX_site6290]", "gcPBM binding intensity (ln)": "8.99 ± 0.57"}, {"sequence": "AGTATTATATATATATGTACATAATATACATATATA [XGTACX_site8514]", "gcPBM binding intensity (ln)": "8.73 ± 0.36"}, {"sequence": "TTATAAGATTTATGTACACACATATACACAGCTCTA [CACACA_site6481]", "gcPBM binding intensity (ln)": "9.06 ± 0.45"}, {"sequence": "TCCTAATGCTACCACACACACAAAAACAAATAATAA [CACACA_site2610]", "gcPBM binding intensity (ln)": "9.35 ± 0.41"}, {"sequence": "TATTAAAATATTTATACACACATAATTTTGATAAAT [CACACA_site4486]", "gcPBM binding intensity (ln)": "8.6 ± 0.33"}]}]}
